Laboratory results published in article PMC3538594 (PLoS ONE, 2013).

What was measured:
[1] = target: wild type, non-tagged recombinant complex II from T. thermophilus HB8 (Thermus thermophilus HB8); assay: native gel or EMSA; Blue Native PAGE of the purified complex II as described in ref. 14; markers beta-amylase (200 kDa), apoferritin monomer (443 kDa) and dimer (886 kDa); trimer of protomers
[2] = target: recombinant complex II from T. thermophilus HB8 with a His8 tag on the N-terminus of the SdhB subunit (Thermus thermophilus HB8); assay: as above
[3] = target: native complex II (succinate:quinone reductase) from Thermus thermophilus (Thermus thermophilus); assay: as above
[4] = target: T1, T. thermophilus complex II (Thermus thermophilus, UniProt Q5SIB8+Q5SIB9+Q5SIC0+Q5SIC1); details: in words
[5] = target: T1, T. thermophilus complex II; assay: DCPIP-only activity assay, statements across enzyme forms; type: biochemical; details: lag time proportional to p-BQ concentration
Excerpt: (§1) Kinetic experiments with NQNO support this interpretation.

[6] = target: T1, T. thermophilus complex II; assay: DCPIP/1,4-NQ activity assay, statements across enzyme forms; type: biochemical; details: compared with DCPIP as the only electron acceptor, all forms of the protein
Excerpt: as §1

[7] = test system: native complex II expression in T. thermophilus; assay: expression of native complex II in the rcII-His8-SdhB production strain; type: cell-based; details: concentration up to 50 mM
Excerpt: On SDS-PAGE all four subunits of the rcII-His8-SdhB complex were detected, with a doublet for the band corresponding to SdhB (Fig. 1A, lane 4). While the upper band of this doublet represents the His-tagged SdhB subunit (Fig. 1B), the lower band migrates identically to the SdhB subunits of the native and wt-rcII complex II and therefore most likely corresponds to a native, non-tagged SdhB subunit. […] Therefore, due to the trimeric nature of the protein, the formation of the complexes containing mixed, His-tagged and untagged SdhB species is not surprising. As expected, due to enhanced expression of the His-tagged complex and the affinity method of purification, the His8-SdhB comprises a significant majority of the observed species in SdhB hybrid. […] Although complex II deletion strains of E. coli and B. subtilis exist, despite our best efforts, the trials to generate sdhCDAB deletion strain of T. thermophilus have been unsuccessful so far. The ability to generate the monomeric version of the enzyme, subsequent tag cleavage and in vitro trimerization of the complex II may seem to be a solution to overcome the problem of mosaic SdhB composition and for future generation of mutants. […]

“wild type, non-tagged recombinant complex II from T. thermophilus HB8” showed a stoichiometry N [1] of 3.
“recombinant complex II from T. thermophilus HB8 with a His8 tag on the N-terminus of the SdhB subunit” was tested, and the stoichiometry N [2] was 3.
“native complex II (succinate:quinone reductase) from Thermus thermophilus” was tested, and the stoichiometry N [3] was 3.
For `CCCCCCCCCc1cc(O)c2ccccc2[n+]1[O-]` [NQNO], the “effect on the DCPIP/PMS activity” value [4] was “negligible effect”.
With `O=C1C=CC(=O)C=C1` [p-BQ, p-benzoquinone] the “effect in the DCPIP assay” value [5] was “induced a lag in the reduction of DCPIP”.
With `O=C1C=CC(=O)c2ccccc21` [1,4-NQ, 1,4-naphthoquinone] the “effect as direct electron acceptor on succinate dehydrogenase activity” value [6] was “increased the succinate dehydrogenase activity by a factor of two”.
`O=C(O)/C=C/C(=O)O` [fumarate] was tested, and the “effect on expression of the native complex II” value [7] was “did not inhibit the expression of the native complex II”.
